Experimental data published in the antibiotic and cytotoxicity screens of Wong et al. (2023).
The other results are listed elsewhere or left out.

Key:
HSkMC = human skeletal muscle cells; test: cytotoxicity call (relative viability < 0.9); conditions: 10 µM
HepG2 = test: cytotoxicity call (relative viability < 0.9); conditions: 10 µM
S. aureus RN4220 = test: growth inhibition call (relative growth <= 0.2); conditions: 50 µM

Row | SMILES | cytotoxicity call (HSkMC) | cytotoxicity call (HepG2) | growth inhibition call (S. aureus RN4220)
1 | COCCOC(=O)N1C(=O)[C@@]2(c3cc(C#CC4=CCCCC4)ccc31)[C@H](C(=O)N1CCN(c3ncccn3)CC1)[C@H]1C(=O)O[C@H](c3ccccc3)[C@H](c3ccccc3)N1[C@@H]2c1ccc(OCCO)cc1 | inactive | inactive | inactive
2 | C[C@H](CO)N1C[C@H](C)[C@H](CN(C)C(=O)Nc2ccccc2)Oc2c(NC(=O)Nc3ccc(C(F)(F)F)cc3)cccc2C1=O | inactive | inactive | inactive
3 | C[C@H]1CN([C@@H](C)CO)C(=O)c2c(c3ccccc3n2C)-c2ccccc2CO[C@@H]1CN(C)CC1CCCCC1 | inactive | active | inactive
4 | CCCNC(=O)N1C[C@]2(CCN(CC2)S(=O)(=O)c2ccccc2)c2c(n(c3cc(ccc23)OC)C)[C@@H]1CO | inactive | inactive | inactive
5 | COC1=C(CC=C(C)C)C(=O)c2ccccc2C1=O | inactive | active | inactive
6 | CC(C)NC(=O)Nc1ccc2c(c1)C(=O)N([C@H](C)CO)C[C@H](C)[C@@H](CN(C)Cc1ccc(C(=O)O)cc1)O2 | inactive | inactive | inactive
7 | C[C@@H]1CCCCO[C@H](CN(C)Cc2ccc3c(c2)OCO3)[C@@H](C)CN([C@H](C)CO)C(=O)c2cc(NS(=O)(=O)c3ccccc3)ccc2O1 | inactive | inactive | inactive
